# Results published in PubChem BioAssay AID588453 (National Center for Advancing Translational Sciences (NCATS), 2011).
# Values joined by “and” are separate entries in the source; they are usually repeats but may differ in a detail not shown here. Equal entries are not always repeated. In all, about 390,000 compounds went through this assay and about 4,000 (1%) were called active. The inconclusive results got no clear call from the source; some entries with a clear call stand among them for comparison. The call rests on the fitted dose curve; in most records, active means well fitted inhibition curve with a large enough effect; inconclusive means small, poorly fitted or top-dose-only effect; inactive means no such curve, though single readings can be large or run the other way. Where the call is inconclusive, the potency comes from a doubtful curve fit.
# Target: Thioredoxin reductase 1, cytoplasmic (Rattus norvegicus) (UniProt O89049)
# UniProt O89049, sequence (O89049 whole entry, looked up): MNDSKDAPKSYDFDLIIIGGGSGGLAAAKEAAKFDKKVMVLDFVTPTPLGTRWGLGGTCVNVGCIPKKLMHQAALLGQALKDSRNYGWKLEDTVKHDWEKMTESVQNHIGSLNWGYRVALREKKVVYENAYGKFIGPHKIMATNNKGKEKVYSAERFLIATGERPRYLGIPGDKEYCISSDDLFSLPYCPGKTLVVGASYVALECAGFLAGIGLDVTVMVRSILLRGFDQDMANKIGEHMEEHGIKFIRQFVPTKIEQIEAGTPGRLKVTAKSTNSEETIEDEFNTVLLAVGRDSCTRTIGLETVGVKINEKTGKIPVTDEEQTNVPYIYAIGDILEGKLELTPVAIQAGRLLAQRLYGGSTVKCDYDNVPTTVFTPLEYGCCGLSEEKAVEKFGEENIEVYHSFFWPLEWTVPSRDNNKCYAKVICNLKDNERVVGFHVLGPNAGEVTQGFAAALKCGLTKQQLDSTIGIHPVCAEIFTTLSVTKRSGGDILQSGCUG
# Experiment: qHTS Assay for Inhibitors of Mammalian Selenoprotein Thioredoxin Reductase 1 (TrxR1): qHTS; further: nearly all actives have a fitted effect of over 65% in size
# Conditions: recombinant rTrxR1, NADPH fluorescence consumption, selenite substrate; series mostly up to 114 µM; activity change, negative = inhibition: at the top concentration
# Summary of the method: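 Rat TrxR1 (90 nM in the dispensed reagent) was pre-reduced with 400 uM NADPH for 5 min at room temperature, then incubated with compound for 15 min. After 400 uM selenite was added, NADPH fluorescence (Ex 340/Em 450 nm) was followed for 8 min.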
# On the % scale 0 is the no-effect control and ±100 the full control effect; potency means the concentration at half of the fitted maximal effect; tags describe the fitted curve by direction and shape.
SMILES,"activity change, negative = inhibition",Potency
Cc1cc(Br)c(OCC(=O)NN)c2c1CCC2,inactive: 12.1%,–
O=C(/C=C/c1ccccc1F)c1ccoc1,–,"inconclusive: 20 µM [inhibitor, full curve]"
COc1ccccc1OCC(=O)Nn1c(=S)[nH]c2ncccc2c1=O,–,"inconclusive: 39.8 µM [inhibitor, partial curve]"
COCCn1c(SCC(=O)NCc2ccco2)nnc1C(C)C,–,"inconclusive: 70.8 µM [inhibitor, single point]"
COc1ccc(NC(=O)c2c(NC(=O)c3cccc(C)c3)sc3c2CCCC3)cc1,–,"inconclusive: 50.1 µM [inhibitor, partial curve]"
Cc1cccc(CN2CCN(C(=O)c3cccc4ccccc34)CC2)c1,inactive: 7.57% [at 57.1 µM],–
NNc1ccc2nncn2n1,–,"inconclusive: 50.1 µM [inhibitor, partial curve]"
C/C(=N\NC(=O)C1CC1)c1ccccc1O,inactive: 10.5% [at 57.1 µM],–
COc1ccc(C2C(C#N)=C(N)N(c3cccnc3)C3=C2C(=O)CC(C)(C)C3)cc1OC (stereo not given),–,active: 17.8 µM
CCN1CCN(c2oc(-c3ccc(OC)cc3)nc2C#N)CC1,–,"inconclusive: 7.08 µM [inhibitor, single point]"
CCCN(CC1CC1)c1nc(N)c2c(N)nc(OC)cc2c1C#N,inactive: 11.4% [at 57.1 µM],–
O=C1CN(C(=O)/C=C/c2ccco2)c2ccccc2N1,–,"inconclusive: 35.5 µM [inhibitor, single point]"
CCOC(=O)c1cc(CC)sc1/N=C/C1=C(O)CC(C)(C)CC1=O,inactive: -34.3%,–
COc1cccc(CNC(=O)CCS(=O)(=O)c2ccc3c(c2)CC(C)N3C(=O)C2CC2)c1 (stereo not given),–,inactive
Clc1ccc(Cl)c(-c2nn3c(COc4ccccc4)nnc3s2)c1,inactive: -14.3% [at 57.1 µM],–
CN(C)Cc1c(O)ccc2c3c(c(=O)oc12)CCCCC3,–,"inconclusive: 70.8 µM [inhibitor, single point]"
Cc1ccc(C2/C(=C(/O)c3ccc(Br)cc3)C(=O)C(=O)N2Cc2ccco2)o1 (stereo not given),–,"inconclusive: 31.6 µM [inhibitor, partial curve, poor fit]"
CC(=O)n1cc([C@@H]2C=C(C(=O)NCc3ccccc3)O[C@H](OCc3ccc(CO)cc3)C2)c2ccccc21,–,"inconclusive: 89.1 µM [inhibitor, single point]"
NC(=O)COC(=O)c1cccc(S(=O)(=O)N2CCCc3ccccc32)c1,inactive: 12.3%,–
COC(=O)c1sc(NC(=O)/C=C/c2ccc(C)o2)nc1C,–,"inconclusive: 50.1 µM [inhibitor, partial curve, poor fit]"
O=[N+]([O-])c1ccc(C=Nc2ccc(Cl)cc2Cl)s1,–,"inconclusive: 79.4 µM [inhibitor, partial curve]"
CC(C)(C)NCC(O)(c1ccc(Cl)cc1)c1ccc(Cl)cc1,inactive: 14.7% [at 57.1 µM],–
CN1CC(C(=O)O)Cc2c1ccc1ccccc21 (stereo not given),inactive: 23.6%,–
C/C=C1\COC(C(=O)NCc2ccccc2)(C(F)(F)F)C=C1C=C(C)C (stereo not given),–,active: 3.16 µM

SMILES,"activity change, negative = inhibition",Potency
COc1cccc(N2C(=O)CC(Nc3ccc(N4CCOCC4)cc3)C2=O)c1 (stereo not given),–,"inconclusive: 12.6 µM [inhibitor, full curve, poor fit]"
CCN(CC)S(=O)(=O)c1ccc(Cl)c(NC(C)=O)c1,–,"inconclusive: 89.1 µM [inhibitor, single point]"
COc1ccc(NC(=O)c2ccco2)cc1NC(=O)c1ccco1,inactive: -10.8% [at 57.1 µM],–
CC(C)N=C1NN=C(c2cccs2)C(CC(=O)O)S1 (stereo not given),–,"inconclusive: 44.7 µM [inhibitor, partial curve]"
C/C(CCc1oc2ccccc2c1-c1ccc(C)o1)=N/O,–,"inconclusive: 31.6 µM [inhibitor, single point]"
O=C(Nc1ccc2[nH]c(=O)[nH]c2c1)c1ccc([N+](=O)[O-])o1,–,"inconclusive: 70.8 µM [inhibitor, partial curve]"
Cc1cc(=O)oc2cc(NC(=S)NNC(=O)c3c(Cl)cnn3C)ccc12,–,"inconclusive: 56.2 µM [inhibitor, partial curve, poor fit]"
CC(C)c1ccc(NC(=O)CCNS(=O)(=O)c2cccc3nsnc23)cc1,–,"inconclusive: 79.4 µM [inhibitor, partial curve, poor fit]"
C(=C\c1ccccn1)/c1ccccn1,inactive: -0.0999%,–
C=CCN(c1ccccc1)S(=O)(=O)c1ccc2c(c1)N(C(C)=O)CCO2,inactive: -4.43%,–
C=C(C)C(=O)N1CC2(CC(c3cccc(NC(=O)/C=C\C=C/C)c3)=NO2)C[C@H]1C(N)=O (stereo not given in full),–,active: 20 µM
COCCn1c(CCC(=O)O)ccc1-c1cccs1,–,"inconclusive: 31.6 µM [inhibitor, partial curve]"
Cc1cc(C)c(/C=C2\C(=O)Nc3ccccc32)[nH]1,–,"inconclusive: 26.7 µM [inhibitor, partial curve] and inconclusive: 2.67 µM [inhibitor, partial curve, poor fit]"
CC(C)=CCN1CCN(Cc2coc3ccc(C)cc3c2=O)CC1CCO (stereo not given),inactive: -12.7%,–
Cc1cc(C)n(C2CC(=O)N(c3cccc(Cl)c3)C2=O)n1 (stereo not given),–,"inconclusive: 25.1 µM [inhibitor, single point]"
Cc1cccc(C(=O)Nc2ccc(C(=O)/C=C/c3cccnc3)cc2)c1,–,"inconclusive: 28.2 µM [inhibitor, partial curve]"
CC(C)(C)c1ccc(C(=O)NC(=S)NCc2ccco2)cc1,–,"inconclusive: 56.2 µM [inhibitor, partial curve, poor fit]"
Cc1ccc(SC2=C(Sc3ccc(C)cc3)C(=O)c3ccccc3C2=O)cc1,–,"inconclusive: 1 µM [inhibitor, full curve, poor fit]"
CC(=O)Nc1ccc(N2C(=O)c3cccc4c(O)ccc(c34)C2=O)cc1,inactive: -8.75% [at 57.1 µM],–
CC1CCCN(c2nc(-c3cccnc3)nc3scc(-c4ccccc4)c23)C1 (stereo not given),inactive: -6.86%,–
O=c1c([N+](=O)[O-])cc(C(F)(F)F)cn1Cc1cccc(Cl)c1,–,"inconclusive: 15.8 µM [inhibitor, partial curve]"
COc1ccc(C(CNC(=O)c2cc(C)oc2C)N2CCOCC2)cc1 (stereo not given),–,"inconclusive: 70.8 µM [inhibitor, single point]"
O=C(Nc1ccc(F)cc1)Nc1csc2ccccc12,–,"inconclusive: 7.08 µM [inhibitor, single point]"
CCCn1c(SCC(=O)c2ccc3c(c2)OCCO3)nnc1-c1ccco1,–,"inconclusive: 79.4 µM [inhibitor, partial curve]"

SMILES,"activity change, negative = inhibition",Potency
COc1ccccc1NC(=O)CSc1nc2sc(C)c(C)c2c(=O)n1Cc1ccco1,–,"inconclusive: 44.7 µM [inhibitor, partial curve]"
CC(C)c1ccc(NC(=O)/C(C#N)=C/c2ccncc2)cc1,–,"inconclusive: 50.1 µM [inhibitor, partial curve, poor fit]"
C=CCn1c(CCNC(=O)c2cccs2)nnc1SCC(=O)c1ccc(Cl)cc1,–,"inconclusive: 3.98 µM [inhibitor, full curve]"
Cc1cc2c(cc1Cl)N(C(=O)Nc1ccnc3ccccc13)CC2,–,"inconclusive: 21.2 µM [inhibitor, partial curve]"
COc1ccc(S(=O)(=O)N(C)C[C@H]2Oc3ccc(NC(=O)Nc4ccc(C(F)(F)F)cc4)cc3C(=O)N([C@H](C)CO)C[C@@H]2C)cc1,inactive: 11.8%,–
C=CCN(CC=C)Cc1c(O)ccc2c(=O)c(-c3ccccc3)coc12,–,"inconclusive: 14.1 µM [inhibitor, full curve]"
Nc1ccccc1S(=O)(=O)NC1=NCCCCC1,–,"inconclusive: 39.8 µM [inhibitor, single point]"
Cc1c(CCC(=O)NCCCN2CCCC2=O)c(=O)oc2cc(O)ccc12,–,"inconclusive: 10 µM [inhibitor, partial curve, poor fit]"
CCc1ccc(OCC(=O)Nc2ccncc2)cc1,inactive: 22.8%,–
COc1cccc(CN2CCCN(S(=O)(=O)c3ccc(Br)cc3)CC2)c1,–,"inconclusive: 22.4 µM [inhibitor, full curve, poor fit]"
O=C(/C=C/c1ccccc1O)c1ccccc1,inactive: -5.69% [at 2.29 µM],–
Cc1ccc2nc(CN3CCN(S(=O)(=O)c4ccc(F)cc4)CC3)oc2c1,inactive: 0.151% [at 57.1 µM],–
COc1ccc(C2/C=C\CN(Cc3ccccc3)CC(=O)N2Cc2ccc(F)cc2)cc1 (stereo not given),–,"inconclusive: 31.6 µM [inhibitor, single point]"
O=C(O)Cc1ccc(NC(=O)c2ccc(NC(=O)c3ccco3)cc2)cc1,–,"inconclusive: 25.1 µM [inhibitor, partial curve, poor fit]"
Cc1csc2nc(-c3cccc(NC(=O)c4c(F)cccc4F)c3)cn12,inactive: 17.9% [at 57.1 µM],–
O=C(CSc1nnc(-c2ccc(Cl)cc2)n1Cc1ccco1)Nc1ccc2c(c1)OCCO2,–,"inconclusive: 25.1 µM [inhibitor, single point]"
COc1ccc(-c2oc3ccc(-c4ccc5c(c4)OCO5)cc3c2C#CC2(O)CCCCC2)cc1,–,"inconclusive: 89.1 µM [inhibitor, single point]"
Cn1c(SC(C(=O)Nc2ccc(F)cc2)c2ccccc2)nc2ccccc21 (stereo not given),inactive: 12%,–
O=c1oc2c(CN3CCOCC3)c(O)ccc2c2c1CCCC2,–,"inconclusive: 63.1 µM [inhibitor, single point]"
CCSC1(SCC)N=C(N)C2(C#N)C(c3ccc(F)cc3)C12C#N (stereo not given),–,active: 31.6 µM
Cc1c(CC(=O)NCc2ccccc2Cl)c(=O)oc2cc(O)ccc12,–,"inconclusive: 15.8 µM [inhibitor, full curve]"
O=C1CC(=O)N(Cc2ccco2)C(=S)N1,–,"inconclusive: 8.91 µM [inhibitor, partial curve, poor fit]"
